Results on 40 compounds are retold here after the antibiotic and cytotoxicity screens of Wong et al. (2023).

Some of the results follow.

This assay deals with S. aureus RN4220. The assay is described as follows: growth inhibition call (relative growth <= 0.2). The note with it: 50 µM.
For the compound `COc1ccc(NC(=O)Nc2ccc3c(c2)C(=O)N([C@@H](C)CO)C[C@@H](C)[C@H](CN(C)Cc2ccc(Cl)c(Cl)c2)OCCCC[C@H](C)O3)cc1`, the growth inhibition call is “inactive”.

As for `C[C@H]1CC/C=C\[C@H]2O[C@@]34C=CCN(Cn5nnc6ccccc65)C(=O)[C@H]3N(CCCCCCO)C(=O)[C@@H]4[C@@H]2C(=O)O1`, the growth inhibition call is “inactive”.

Regarding `CCCNc1nc(Nc2ccc(C#N)cc2)ncc1C#CCCCNC(=O)[C@H](C)N(C)C(=O)/C=C/CN(C)C`, the growth inhibition call is “inactive”.

Take `C[C@H](CO)N1C[C@H](C)[C@H](CN(C)C(=O)Nc2ccc(-c3ccccc3)cc2)OCc2ccccc2-c2c(n(C)c3ccccc23)C1=O`: the growth inhibition call was “inactive”.

On to `COc1ccc(S(=O)(=O)N(C)C[C@H]2Oc3c(NC(=O)c4cc(C)nn4C)cccc3C(=O)N([C@H](C)CO)C[C@H]2C)cc1`, for which the growth inhibition call is “inactive”.

For `C[C@@H]1CN([C@H](C)CO)C(=O)c2cc(NC(=O)Nc3ccc4c(c3)OCO4)ccc2O[C@@H](C)CCCCO[C@H]1CN(C)Cc1ccc(Cl)c(Cl)c1`, the growth inhibition call was “inactive”.

Regarding `O=C(C[C@@H]1CC[C@@H]2[C@H](COC[C@H](O)CN2S(=O)(=O)c2ccc(Cl)cc2)O1)NCc1ccncn1`, the growth inhibition call was “inactive”.

For the compound `Cc1ccc(S(=O)(=O)Nc2ccc3c(c2)C(=O)N([C@H](C)CO)C[C@H](C)[C@H](CN(C)S(C)(=O)=O)OCCCC[C@H](C)O3)cc1`, the growth inhibition call was “inactive”.

In the case of `COc1ccc(NC(=O)N(C)C[C@H]2Oc3ccc(NC(=O)CCCCCC(=O)Nc4ccccc4N)cc3CC(=O)N([C@H](C)CO)C[C@H]2C)cc1`, the growth inhibition call was “inactive”.

As for `C[C@@H]1CCCCO[C@H](CN(C)Cc2ccc3c(c2)OCO3)[C@H](C)CN([C@@H](C)CO)C(=O)c2cc(NC(=O)Nc3ccc(F)cc3)ccc2O1`, the growth inhibition call is “inactive”.

As for `C[C@H](CO)N1C[C@H](C)[C@H](CN(C)S(=O)(=O)c2ccc(Cl)cc2)Oc2ccc(N(C)C)cc2C1=O`, the growth inhibition call is “inactive”.

As to `CC(=O)N[C@H]1CC[C@H](CCNC(=O)C2CC2)O[C@H]1CO`, the growth inhibition call was “inactive”.

`COc1ccccc1C#Cc1ccc2c(c1)O[C@@H](CN(C)Cc1cncnc1)[C@H](C)CN([C@H](C)CO)S2(=O)=O`: the growth inhibition call was “inactive”.

Turning to `Cc1noc(C)c1S(=O)(=O)Nc1ccc2c(c1)C(=O)N([C@@H](C)CO)C[C@@H](C)[C@@H](CN(C)Cc1ccc(C(F)(F)F)cc1)OCCCC[C@H](C)O2`, the growth inhibition call is “inactive”.

In the case of `C[C@H](CO)N1C[C@H](C)[C@H](CN(C)Cc2ccccc2)OCCCC[C@H](C)Oc2ccc(NC(=O)Nc3ccc(C(F)(F)F)cc3)cc2C1=O`, the growth inhibition call is “inactive”.

Take `C[C@@H]1CN([C@H](C)CO)C(=O)c2cccc(NS(=O)(=O)c3cn(C)cn3)c2O[C@H]1CN(C)S(=O)(=O)c1cn(C)cn1`: the growth inhibition call was “inactive”.

With `Cc1ccc(S(=O)(=O)Nc2ccc3c(c2)C(=O)N([C@H](C)CO)C[C@H](C)[C@H](CN(C)C(=O)C2CCCCC2)OCCCC[C@H](C)O3)cc1`, the growth inhibition call is “inactive”.

In the case of `C[C@H](CO)N1C[C@H](C)[C@H](CN(C)Cc2ccccc2)OCCCC[C@H](C)Oc2ccc(NC(=O)Nc3ccc4c(c3)OCO4)cc2C1=O`, the growth inhibition call is “inactive”.

Turning to `CC(C)/C=C1\CC/C(=C\c2ccc(C(F)(F)F)cc2)C1=O`, the growth inhibition call was “inactive”.

On to `C[C@@H](NCc1cnc(N(C)C)s1)C(N)=O`, for which the growth inhibition call was “inactive”.

For the compound `COc1cccc(CNC(=O)c2cc3c(c(-c4cccc(-c5ccc(C#N)cc5)c4)n2)[C@H](CCO)N([S@@](=O)C(C)(C)C)C3)c1`, the growth inhibition call was “inactive”.

Regarding `COCC#Cc1cnc2c(c1)C(=O)N([C@@H](C)CO)C[C@@H](C)[C@H](CN(C)S(=O)(=O)c1cccc(OC)c1)O2`, the growth inhibition call was “inactive”.

On to `C=CC[C@@H](CC(=O)N[C@H](CO)Cc1ccccc1)C(=O)N[C@@H](C)COC(=O)[C@H](CC=C)CC(=O)OC(C)(C)C`, for which the growth inhibition call is “inactive”.

As to `C[C@@H]1CN([C@@H](C)CO)C(=O)c2cc(NC(=O)Nc3ccccc3)ccc2O[C@@H](C)CCCCO[C@@H]1CN(C)C(=O)Cc1ccccc1`, the growth inhibition call is “inactive”.

As to `C[C@H](CO)N1C[C@H](C)[C@@H](CN(C)C(=O)NC2CCCCC2)Oc2ccc(NC(=O)CCCN(C)C)cc2C1=O`, the growth inhibition call was “inactive”.

Consider `NCCn1cccn1`, for which the growth inhibition call is “inactive”.

With `CS(=O)(=O)N1CCN(C(=O)NCc2ccccc2)C[C@]2(CNC(=O)C2)C1`, the growth inhibition call is “inactive”.

`C[C@@H]1CN([C@@H](C)CO)C(=O)c2cc(NC(=O)Nc3ccc4c(c3)OCO4)ccc2O[C@@H](C)CCCCO[C@@H]1CN(C)Cc1ccccc1`: the growth inhibition call is “inactive”.

For `CN(C(=O)c1ccc(Cl)c(N2C(=O)CCS2(=O)=O)c1)[C@H]1CCS(=O)(=O)C1`, the growth inhibition call was “inactive”.

As to `O=C(C[C@H]1CC[C@@H]2[C@H](COC[C@H](O)CN2C(=O)Nc2ccc(F)cc2)O1)NCCCN1CCOCC1`, the growth inhibition call is “inactive”.

Take `C[C@@H]1CN([C@@H](C)CO)S(=O)(=O)c2ccc(-c3ccc(C(=O)N(C)C)cc3)cc2O[C@@H]1CN(C)C(=O)Cc1ccccn1`: the growth inhibition call was “inactive”.

On to `C[C@@H]1CN([C@H](C)CO)C(=O)Cc2cc(NC(=O)Nc3ccccc3)ccc2O[C@H]1CN(C)S(=O)(=O)c1cn(C)cn1`, for which the growth inhibition call is “inactive”.

With `C[C@H]1CN([C@@H](C)CO)C(=O)Cc2cc(NS(C)(=O)=O)ccc2O[C@H]1CN(C)S(=O)(=O)c1ccccc1`, the growth inhibition call was “inactive”.

With `C[C@@H]1CCCCO[C@@H](CN(C)C(=O)NC2CCCCC2)[C@H](C)CN([C@@H](C)CO)C(=O)c2cc(NC(=O)Nc3ccc(F)cc3)ccc2O1`, the growth inhibition call is “inactive”.

With `C=CCOC(=O)[C@H]1[C@@H]2C(=O)O[C@@H](c3ccccc3)[C@@H](c3ccccc3)N2[C@@H](c2ccc(OCCOC(=O)[C@H]3C[C@H]4C(=O)NCC(=O)N4[C@H]3c3ccc(O)cc3)cc2)[C@]12C(=O)Nc1ccccc12`, the growth inhibition call is “inactive”.

With `O=C(CN1C(=O)c2cccc3cccc(c23)C1=O)N1CCN(CCN2C(=O)[C@@H]3[C@@H](C2=O)[C@@H]2C=C[C@@H]3C2)CC1`, the growth inhibition call was “inactive”.

With `CNC(=O)C[C@H]1CC[C@@H]2[C@H](COC[C@@H](O)CN2C(=O)Nc2ccc3c(c2)OCO3)O1`, the growth inhibition call was “inactive”.

For `CC[C@@H]1OC(=O)[C@@H](C)[C@H](O[C@H]2C[C@@](C)(OC)[C@@H](O)[C@H](C)O2)[C@@H](C)[C@H](O)[C@@](C)(O[C@@H]2O[C@H](C)C[C@H](N(C)C)[C@H]2O)C[C@H](C)C(=O)[C@@H](C)[C@H](O)[C@@]1(C)O`, the growth inhibition call was “active”.

With `CN1C(=O)c2cc(NC(=O)C3CCOCC3)ccc2OC[C@H]2O[C@@H](CC(=O)NCc3ccc4c(c3)OCO4)CC[C@H]21`, the growth inhibition call was “inactive”.

As to `O=C(Nc1ccccc1)c1cc2c(c(-c3cccc(-c4ccncc4)c3)n1)[C@@H](CCO)N(CC1CCOCC1)C2`, the growth inhibition call was “inactive”.
